Test results as given in the supplement of paper PMC6206098.
± gives the uncertainty stated by the source. Shown are siRNA guide strands that differ only in the seed, positions 2 to 7.

Legend:
[1] = tested on: M565; experiment: cell viability relative to lipid-only control; higher = less toxic; conditions: concentration: 10 nM; 96 h; Mus musculus
Experimental: (§1)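 Arrayed screen of 4096 siRNA duplexes, each carrying one of all possible 6mer seeds at guide-strand positions 2-7 in a fixed neutral 19mer scaffold (constant flanks: U at position 1, then ACAUGUAAACCA, plus a 3' AA overhang). The passenger strand is 2'-O-methylated at positions 1-2 so only the guide strand loads into RISC. Duplexes were reverse-transfected at 10 nM with RNAiMAX in triplicate in 384-well plates; viability was read by CellTiter-Glo ATP content 96 h after transfection. Values are % viability normalised to lipid-only wells (HeyA8, H460, M565) or to siNT1 (3LL).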

[2] = tested on: H460; experiment: as above; conditions: concentration: 10 nM; 96 h; Homo sapiens
Experimental: as §1

[3] = tested on: HeyA8; experiment: as above; conditions: concentration: 10 nM; 96 h; Homo sapiens
Experimental: as §1

[4] = tested on: 3LL; experiment: cell viability relative to siNT1 control; HeyA8 human ovarian and H460 human lung cancer; M565 mouse liver and 3LL mouse lung cancer; siNT1 is a non-toxic control siRNA; higher = less toxic; conditions: concentration: 10 nM; 96 h; Mus musculus;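 further: Luminescence-based viability of cells reverse transfected in 384-well plates with lipid-complexed siRNAs built on a non-toxic 19mer backbone whose passenger strand carries 2′-O-methyl groups at positions 1 and 2, triplicates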
Experimental: as §1
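Wherever cell viability relative to lipid-only control is given: reverse lipid transfection in 384-well plates, in triplicate, of duplexes on a non-toxic 19mer backbone with passenger strand 2′-O-methylated at positions 1 and 2, luminescence viability read-out.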

| Sequence | cell viability [1] | cell viability [2] | cell viability [3] | cell viability [4] |
| --- | --- | --- | --- | --- |
| UACGGGUACAUGUAAACCAAA | 24.6 ± 2.3% | 71.1 ± 7.2% | 70.5 ± 14% | 34.4 ± 8% |
| UACGGUAACAUGUAAACCAAA | 96.7 ± 9.6% | 69.8 ± 8.9% | 67.3 ± 6% | 87.2 ± 8.3% |
| UACGGUCACAUGUAAACCAAA | 37.8 ± 5.1% | 57.9 ± 4.5% | 24.3 ± 3.1% | 45.9 ± 12% |
| UACGGUGACAUGUAAACCAAA | 62.8 ± 4.3% | 83.3 ± 4.6% | 84.2 ± 9.4% | 83.7 ± 14% |
| UACGGUUACAUGUAAACCAAA | 85.8 ± 14% | 64.6 ± 4.2% | 67.88 ± 0.44% | 79.1 ± 5.2% |
| UACGUAAACAUGUAAACCAAA | 80.6 ± 7.8% | 67.1 ± 7.6% | 96.3 ± 7% | 90.3 ± 9.6% |
| UACGUACACAUGUAAACCAAA | 95.6 ± 3.7% | 66.7 ± 12% | 30.65 ± 0.21% | 80 ± 7.4% |
| UACGUAGACAUGUAAACCAAA | 60.6 ± 6.7% | 79.5 ± 13% | 83.9 ± 10% | 83.9 ± 14% |
| UACGUAUACAUGUAAACCAAA | 89.4 ± 8% | 80.2 ± 23% | 63.4 ± 7.5% | 90 ± 10% |
| UACGUCAACAUGUAAACCAAA | 43 ± 7.3% | 97.2 ± 2.9% | 79.6 ± 11% | 81.1 ± 11% |
| UACGUCCACAUGUAAACCAAA | 7.34 ± 1.9% | 36 ± 1.6% | 29.9 ± 3.9% | 19.2 ± 2.3% |
| UACGUCGACAUGUAAACCAAA | 49.4 ± 3.9% | 79.7 ± 12% | 79.2 ± 6.6% | 85.5 ± 10% |
| UACGUCUACAUGUAAACCAAA | 31.6 ± 11% | 75.4 ± 8% | 50 ± 9.5% | 81.9 ± 3.2% |
| UACGUGAACAUGUAAACCAAA | 63.4 ± 11% | 76.9 ± 3.8% | 80.3 ± 12% | 87.8 ± 8.6% |
| UACGUGCACAUGUAAACCAAA | 6.3 ± 1.5% | 48.1 ± 3.4% | 15.7 ± 1.2% | 43.1 ± 8.6% |
| UACGUGGACAUGUAAACCAAA | 44.3 ± 7.7% | 69.2 ± 8.4% | 75.6 ± 2.4% | 85.8 ± 5.1% |
| UACGUGUACAUGUAAACCAAA | 44.6 ± 3.2% | 65.3 ± 5.1% | 63.5 ± 5.1% | 75.6 ± 5.5% |
| UACGUUAACAUGUAAACCAAA | 73.3 ± 9.8% | 85.7 ± 17% | 92.2 ± 3.6% | 95.2 ± 12% |
| UACGUUCACAUGUAAACCAAA | 32.9 ± 2.3% | 58.9 ± 8.8% | 34.4 ± 2.5% | 86.8 ± 14% |

| Sequence | cell viability [1] | cell viability [2] | cell viability [3] | cell viability [4] |
| --- | --- | --- | --- | --- |
| UACGUUGACAUGUAAACCAAA | 57.1 ± 16% | 75.4 ± 13% | 80 ± 3.6% | 94.6 ± 17% |
| UACGUUUACAUGUAAACCAAA | 63.8 ± 6.8% | 79.9 ± 6.8% | 44.5 ± 3.9% | 86.9 ± 9.6% |
| UACUAAAACAUGUAAACCAAA | 77.9 ± 5.6% | 93.1 ± 20% | 97.9 ± 15% | 98 ± 11% |
| UACUAACACAUGUAAACCAAA | 55.5 ± 11% | 63.5 ± 6.8% | 62.7 ± 3% | 86.9 ± 7.4% |
| UACUAAGACAUGUAAACCAAA | 64.3 ± 8.5% | 92.7 ± 6.4% | 92.3 ± 5.9% | 99.4 ± 12% |
| UACUAAUACAUGUAAACCAAA | 86.8 ± 18% | 76 ± 12% | 74.6 ± 3% | 94.3 ± 11% |
| UACUACAACAUGUAAACCAAA | 62.2 ± 10% | 86.2 ± 17% | 87.7 ± 3.9% | 93.8 ± 15% |
| UACUACCACAUGUAAACCAAA | 3.76 ± 1.1% | 48.7 ± 0.98% | 31.4 ± 2.6% | 39.9 ± 5% |
| UACUACGACAUGUAAACCAAA | 68.6 ± 12% | 66.2 ± 16% | 91.1 ± 8.6% | 92.3 ± 11% |
| UACUACUACAUGUAAACCAAA | 49.8 ± 16% | 66.5 ± 6.4% | 43.7 ± 7.8% | 60.1 ± 9.1% |
| UACUAGAACAUGUAAACCAAA | 79.2 ± 12% | 64.3 ± 9.4% | 82.2 ± 4.8% | 100 ± 15% |
| UACUAGCACAUGUAAACCAAA | 19.3 ± 4.3% | 29.3 ± 3.5% | 17.3 ± 1.7% | 11.6 ± 2.3% |
| UACUAGGACAUGUAAACCAAA | 43.9 ± 5.8% | 49.7 ± 2.5% | 25 ± 1.6% | 95.5 ± 7% |
| UACUAGUACAUGUAAACCAAA | 51.6 ± 4.8% | 24.7 ± 0.25% | 16.8 ± 0.71% | 73.4 ± 9.5% |
| UACUAUAACAUGUAAACCAAA | 82.8 ± 6% | 68 ± 2.5% | 95.2 ± 5.6% | 97 ± 9.4% |
| UACUAUCACAUGUAAACCAAA | 51.6 ± 5.5% | 67.9 ± 8.1% | 41.4 ± 3% | 61.8 ± 16% |
| UACUAUGACAUGUAAACCAAA | 85.7 ± 6.7% | 62.7 ± 6.5% | 87.2 ± 5.3% | 102 ± 11% |
| UACUAUUACAUGUAAACCAAA | 71.3 ± 18% | 60.1 ± 4.5% | 52.6 ± 3.9% | 93.6 ± 7.6% |
| UACUCAAACAUGUAAACCAAA | 31.1 ± 8.6% | 81.2 ± 9.5% | 76.5 ± 4.1% | 93.6 ± 9.3% |

| Sequence | cell viability [1] | cell viability [2] | cell viability [3] | cell viability [4] |
| --- | --- | --- | --- | --- |
| UACUCACACAUGUAAACCAAA | 32.3 ± 2.8% | 82.3 ± 13% | 66 ± 3.3% | 85.7 ± 12% |
| UACUCAGACAUGUAAACCAAA | 25.3 ± 3.2% | 73.7 ± 6.1% | 78.9 ± 6.8% | 92.2 ± 9.6% |
| UACUCAUACAUGUAAACCAAA | 36.8 ± 5.8% | 72.1 ± 8.4% | 61.9 ± 6.5% | 83.2 ± 7.5% |
| UACUCCAACAUGUAAACCAAA | 58.5 ± 3.5% | 72.4 ± 8.1% | 60.7 ± 1.7% | 81.6 ± 5.6% |
| UACUCCCACAUGUAAACCAAA | 54.6 ± 13% | 62.7 ± 5.7% | 22.6 ± 1.9% | 45.2 ± 4.2% |
| UACUCCGACAUGUAAACCAAA | 33.2 ± 2.3% | 88.1 ± 7.6% | 65.4 ± 4.7% | 76.8 ± 9.2% |
| UACUCCUACAUGUAAACCAAA | 7.14 ± 1.8% | 22 ± 2.4% | 26.4 ± 1.4% | 11.1 ± 1.3% |
| UACUCGAACAUGUAAACCAAA | 48.3 ± 8.3% | 80.3 ± 2.9% | 90.7 ± 10% | 93.9 ± 9.2% |
| UACUCGCACAUGUAAACCAAA | 17.3 ± 5.1% | 69.7 ± 14% | 78.4 ± 8.3% | 21.7 ± 5.1% |
| UACUCGGACAUGUAAACCAAA | 22.8 ± 6.8% | 83.5 ± 18% | 76.4 ± 7.1% | 54.1 ± 5.4% |
| UACUCGUACAUGUAAACCAAA | 70.7 ± 19% | 66.8 ± 13% | 77.3 ± 8.8% | 87.9 ± 16% |
| UACUCUAACAUGUAAACCAAA | 56.7 ± 13% | 82 ± 26% | 97.2 ± 18% | 90.5 ± 14% |
| UACUCUCACAUGUAAACCAAA | 40 ± 1.9% | 34.8 ± 1.5% | 51.6 ± 1.4% | 51.5 ± 13% |
| UACUCUGACAUGUAAACCAAA | 52.7 ± 7.1% | 92 ± 8.6% | 94.6 ± 8% | 88.5 ± 4.3% |
| UACUCUUACAUGUAAACCAAA | 58.6 ± 3.4% | 88.7 ± 12% | 80.5 ± 6% | 83.7 ± 3.7% |
| UACUGAAACAUGUAAACCAAA | 75.5 ± 5.8% | 75.1 ± 15% | 107 ± 14% | 93.3 ± 8.8% |
| UACUGACACAUGUAAACCAAA | 6.29 ± 1.2% | 50.7 ± 1.5% | 35.3 ± 2.4% | 17 ± 1% |
| UACUGAGACAUGUAAACCAAA | 38.9 ± 8% | 81.8 ± 15% | 106 ± 9% | 91.8 ± 13% |
| UACUGAUACAUGUAAACCAAA | 45.9 ± 7.1% | 96.5 ± 6.8% | 78.5 ± 7.1% | 78.7 ± 6.7% |
